Laboratory results as given in the supplement of paper PMC3334620.
Whole data set: some 33,000 sequences, median “E-score (-0.5 to 0.5)” near -0.032, cut for the highest 2% near 0.36. This is one part of the list.

molecular target: T1, Sko1 (UniProt Q02100); experiment: PBM E-score (8-mer binding enrichment) (E-score (-0.5 to 0.5)); higher = stronger / more preferred TF binding; most listed sequences are background and not binding sites; conditions: protein concentration: 200 nM; construct: GST-full length
T1 sequence: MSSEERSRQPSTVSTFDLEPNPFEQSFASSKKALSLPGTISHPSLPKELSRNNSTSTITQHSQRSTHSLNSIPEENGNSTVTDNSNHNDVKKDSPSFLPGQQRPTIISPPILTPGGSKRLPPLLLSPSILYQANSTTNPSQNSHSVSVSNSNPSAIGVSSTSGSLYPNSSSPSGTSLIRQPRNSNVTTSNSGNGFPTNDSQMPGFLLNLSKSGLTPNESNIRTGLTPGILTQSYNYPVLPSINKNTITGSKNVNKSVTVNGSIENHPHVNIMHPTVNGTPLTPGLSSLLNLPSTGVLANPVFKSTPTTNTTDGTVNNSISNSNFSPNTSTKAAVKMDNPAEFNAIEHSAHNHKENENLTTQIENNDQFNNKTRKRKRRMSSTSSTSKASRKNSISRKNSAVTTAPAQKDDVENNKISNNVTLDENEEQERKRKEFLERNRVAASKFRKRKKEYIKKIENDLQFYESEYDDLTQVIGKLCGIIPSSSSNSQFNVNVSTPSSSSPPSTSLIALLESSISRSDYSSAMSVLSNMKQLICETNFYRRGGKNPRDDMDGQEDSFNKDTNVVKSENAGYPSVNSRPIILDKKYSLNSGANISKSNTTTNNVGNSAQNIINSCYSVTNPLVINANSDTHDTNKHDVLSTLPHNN
Summary of the method: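 The E-score, a modified Wilcoxon-Mann-Whitney statistic, was computed by the Universal PBM Analysis Suite for every ungapped eight-base word pooled with its reverse complement. Scans behind it were normalised with masliner after bound GST-tagged yeast transcription factors were detected with fluorescent anti-GST. The proteins, at about 100-200 nM, had been applied to universal all-10-mer Agilent arrays made double-stranded by primer extension.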

Sequence | PBM E-score
CAGGTAAC | -0.118
CGTATCTA | 0.245
CCCTCAAC | -0.138
CGATATCG | 0.242
CCATGTAG | -0.0679
ATCTGACA | -0.201
AGCTCTCG | -0.0918
AATGCCCT | -0.205
AAGAAAGA | -0.0503
TGATCGCA | 0.00793
ACGGTCGG | -0.28
CTAGAAAC | 0.0811
GGTGCCGA | -0.233
GCAGATCC | -0.205
CCACATTC | -0.0441
AGGGGGCC | -0.392
CATTAGCA | 0.207
AGGTGACT | 0.0898
CTTTCCGC | -0.0449
TGACCTAA | 0.309
GATAGACA | -0.0594
CCAGTCGG | -0.142
ATCCTGTG | -0.173
AAGTATGG | 0.023
ATTAGTAC | 0.286

Sequence | PBM E-score
ATGGGCGG | -0.0827
AATAATTA | 0.32
CTAAGATC | -0.059
GGTAGGTA | -0.0963
GCGTCCGA | -0.183
AGCGTTTC | -0.0234
CCCAATAG | 0.0683
AGCCTTTG | -0.267
ACAGCCGA | -0.306
AACGGAAT | 0.111
CGAGCACA | -0.00253
CGCGCTAA | 0.164
GAATGTAA | 0.00625
GCCCGGCC | -0.396
ATTCCAAC | 0.0583
AGATTAGG | 0.0796
GCCAACCA | -0.0814
CGTGCGTA | 0.382
AGCCGGAA | -0.222
AAACATTC | 0.0936
GGCGGATA | -0.0218
AAGGTTAA | 0.06
CGACGACC | -0.114
CGCCTTCC | -0.325
ACGTAGCA | 0.412

Sequence | PBM E-score
GACAACTC | 0.0731
CCATGGTC | -0.276
ACCCCCTC | -0.404
ATGCAGAG | -0.276
ATGGCGAA | 0.125
GGCTGAGA | -0.16
CGTCCTCA | -0.123
AAAAACAA | 0.187
GTACCGAA | -0.0524
ACCGTACC | -0.244
GGGATCGA | -0.0773
CGCACCAA | 0.0324
ACGAATTC | 0.187
CAGCCCCC | -0.335
CTGGGAGA | -0.297
AGCTGGGG | -0.241
CCCCCGGC | -0.312
GATCCCGA | -0.298
ATATGGAG | 0.0361
GTAAGGCA | 0.119
AGGTCCCG | -0.25
GTCCATCA | -0.0105
CACGGCTG | -0.226
AGTCAATG | -0.0578
GATCGGGA | -0.0312

Sequence | PBM E-score
CTAAATAG | -0.0565
CCTGTGTC | -0.211
AGGGGAAG | -0.168
CGTAGTAC | 0.372
GCCTCCGA | -0.29
ATCAGCGC | -0.0254
AGACACTG | -0.182
CCGCTCAA | -0.194
CTGCATCA | 0.226
CCTACTTC | -0.0456
AAAGGGGT | -0.26
ATATACAC | 0.276
AACAACGG | -0.14
CCGGTCAA | -0.12
CGGCACCC | -0.32
CATCGCGA | 0.0564
CAAGACTC | -0.047
AGCTCAAA | 0.0839
CGGTCAAA | -0.0179
GGAGGAAC | -0.14
ATAAGGCG | 0.0753
ATCTCAAG | -0.0407
AGGCTTGA | -0.0134
CGACGTGA | 0.344
ATAGTTGC | 0.156

Sequence | PBM E-score
CAGGTGGC | -0.129
CGTAGTCA | 0.3
TACAGAAA | 0.056
CGACCTCC | -0.31
ACTTGAAT | 0.0186
ACCAGCCG | -0.311
GAGGATAC | 0.0269
CCAGTTCA | -0.179
AATCATTA | 0.211
CCTCAGTA | -0.232
CAACTGAG | -0.101
GACAACCA | -0.0284
CGGTCAAC | -0.144
TAGCGCCA | -0.109
ACTTCAGA | 0.00774
AGACGCCG | -0.168
GAAGCCGA | -0.167
TAGGGATA | -0.0567
GGCATCGA | -0.151
CGGCCCAC | -0.176
CCCTCCGC | -0.279
AATACACA | 0.237
ATGTGGAA | 0.14
GGAATAAC | -0.0143
CTGGTTAA | -0.126

Sequence | PBM E-score
CCTCTTAG | -0.0847
CTCGTACA | -0.00741
TAGTTTGA | 0.2
TATTCACA | 0.212
GCTGGGCC | -0.247
CGGGAATC | -0.26
CACTCGCG | -0.0604
GAGAAACC | -0.146
ACCTATGG | -0.195
CTATCCCA | -0.083
AGACGAGG | -0.3
AGTAATTA | 0.263
CCTCCTTA | -0.201
ACTGTTCG | 0.0219
ATAACGCC | 0.1
ATCGCGTA | 0.326
TAAACGTA | 0.42
AACTCTTC | 0.0128
ACGTGTGA | 0.401
AACCGGTG | -0.169
TCACGTAA | 0.472
GTCGATTA | 0.186
CGGCCAAA | -0.0731
CACCGCTA | -0.192
ATTGTTAA | 0.0942

Sequence | PBM E-score
CTGTTAAG | 0.0532
AACTGTGT | -0.126
GCTTGACA | -0.0945
AGCAAGCA | -0.21
ACGGCCAT | -0.394
GCCCCCGC | -0.426
GACGCTGA | 0.0227
TCCATGAA | 0.0481
CGAGCAAC | 0.026
GGTTACCA | -0.132
GTAGCGGA | -0.0973
ATTGGCAA | 0.134
CGTCGGGA | 0.0566
CTGGTCGC | -0.186
ACGCGGAT | 0.145
ATTTCCCG | 0.0255
ATCACGCA | 0.308
AAAGCGCT | 0.197
TAGAGGAA | -0.104
AAAGGTCT | -0.187
AGAGTGTA | -0.174
CCTGTTAA | -0.00046
